From PubChem BioAssay AID1645882 (National Center for Advancing Translational Sciences (NCATS), 2021)
Among all 16,000 compounds or so, about 120 (0.75%) were called active. Another 4% or so got no clear call; they are omitted. The call rests on the fitted dose curve; in most records, active means well fitted inhibition curve with a large enough effect; inconclusive means small, poorly fitted or top-dose-only effect; inactive means no such curve, though single readings can be large or run the other way. This is one part of the list.

Biological target: Rap guanine nucleotide exchange factor 3 (Homo sapiens) (UniProt O95398)
Assay: Validation qHTS for antagonist of cAMP-regulated guanine nucleotide exchange factor 3 (EPAC1);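 further: plate controls were DMSO for no effect and ATA control for full effect; nearly all actives have a fitted effect of over 75% in size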
Conditions: EPAC1 Rap1B-BODIPY-GDP exchange, fluorescence; series mostly up to 150 µM; activity change, negative = inhibition: at the top concentration
Outline: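 Nucleotide exchange followed as fluorescence loss when BODIPY-GDP leaves Rap1B (480 nm excitation, 540 nm emission), read at 5 min intervals over 30 min. Reaction: 100 nM EPAC1, 250 nM RAP1B-BODIPY-GDP, 50 uM GDP; ATA and DMSO define normalization.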

Chain of UniProt O95398 (O95398 whole entry, looked up): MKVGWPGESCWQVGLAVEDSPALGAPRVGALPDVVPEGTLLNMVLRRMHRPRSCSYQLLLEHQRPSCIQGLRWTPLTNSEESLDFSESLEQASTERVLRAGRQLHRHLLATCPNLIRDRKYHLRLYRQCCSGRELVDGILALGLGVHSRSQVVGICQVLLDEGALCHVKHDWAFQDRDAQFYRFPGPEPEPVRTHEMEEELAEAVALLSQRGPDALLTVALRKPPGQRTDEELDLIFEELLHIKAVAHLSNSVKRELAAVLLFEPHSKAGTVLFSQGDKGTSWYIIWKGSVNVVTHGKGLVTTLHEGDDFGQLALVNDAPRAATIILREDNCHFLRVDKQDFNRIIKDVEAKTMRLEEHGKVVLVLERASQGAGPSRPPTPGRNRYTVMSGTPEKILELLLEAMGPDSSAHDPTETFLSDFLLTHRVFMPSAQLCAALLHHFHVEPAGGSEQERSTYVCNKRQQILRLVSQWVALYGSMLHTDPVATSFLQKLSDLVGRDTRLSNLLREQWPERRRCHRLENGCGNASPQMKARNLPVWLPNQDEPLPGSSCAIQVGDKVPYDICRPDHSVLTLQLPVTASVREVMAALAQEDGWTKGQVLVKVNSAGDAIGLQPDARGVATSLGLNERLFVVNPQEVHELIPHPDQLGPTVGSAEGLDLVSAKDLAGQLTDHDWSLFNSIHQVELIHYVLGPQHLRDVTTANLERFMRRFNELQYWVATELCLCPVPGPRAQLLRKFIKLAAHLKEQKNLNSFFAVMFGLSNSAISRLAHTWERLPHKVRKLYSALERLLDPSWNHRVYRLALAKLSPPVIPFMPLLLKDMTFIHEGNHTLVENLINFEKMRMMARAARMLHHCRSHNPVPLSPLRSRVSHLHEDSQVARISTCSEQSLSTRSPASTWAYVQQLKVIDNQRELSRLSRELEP

Activity change, negative = inhibition, inactive:
O=C(O)CCCCC1CCSS1 (centres undefined)
O=C(N[C@@H]1CCC(=O)N(CC[C@H](Sc2ccccc2)c2ccccc2)CC1)OCc1ccccc1 4.42%
CCN(CC)Cc1cc(Nc2ccnc3cc(Cl)ccc23)ccc1O
CC(=O)OC1CC[C@@]2(C)C3=CC(=O)[C@]4(C)C(CC5OC6(OCC(C)CC6Br)C(C)C54)C3CC[C@H]2C1 (some centres undefined) -4.28%
OC(c1ccc2c(c1)CN(Cc1ccc3nsnc3c1)CCO2)C1CCCCC1 (centres undefined) 12.3%
COc1ccc2c(c1)CCc1cnc(-n3ncc(C(=O)NCc4cccnc4)c3C3CC3)nc1-2 29%
CC[C@@H]([C@H](C)O)n1ncn(-c2ccc(N3CCN(c4ccc(OCC5CO[C@@](Cn6cncn6)(c6ccc(F)cc6F)C5)cc4)CC3)cc2)c1=O (some centres undefined) 19.4%
CN1CCC(=O)N([C@H](CN=[N+]=[N-])Cc2ccccc2)CC1 -4.27%
C#C[C@]1(OC(C)=O)CC[C@H]2[C@@H]3CCC4=C/C(=N/O)CC[C@@H]4[C@H]3CC[C@@]21CC -11.6%
COc1ccc2[nH]c(C(=O)c3ccccc3)cc2c1 0.833%
c1ccc(CNCCNCc2ccccc2)cc1 5.83%
O=C(/C=C/C=C/c1ccc2c(c1)OCO2)N1CCCCC1 2.95%
CC(C)CCC[C@@H](C)[C@H]1CC(=O)C2=C3CC[C@H]4C[C@@H](O)CC[C@]4(C)[C@H]3CC[C@@]21C -4.86%
O=c1c2ccccc2nc2n1CCc1c-2[nH]c2ccccc12 -4.38% [at 75.8 µM]
CCC(=O)OCC(=O)[C@@]1(OC(=O)CC)[C@@H](C)C[C@H]2[C@@H]3CCC4=CC(=O)C=C[C@]4(C)[C@@]3(Cl)[C@@H](O)C[C@@]21C -3.39%
O=C(O)CCCCCCCCc1cn(CCc2c[nH]c3ccccc23)nn1 10.2%
COc1ccc(S[C@@H]2C[C@@H](C(=O)Nc3ccc4nccnc4c3)N(C3Cc4ccccc4C3)C2)cc1 -6.71%
COc1ccccc1C(=O)N[C@@H]1c2ccccc2C2(CCN(Cc3ccc(C)o3)CC2)[C@H]1O 4.24%
CC(=O)N1CCC2(CCCN(c3cccc(-c4ccccc4)c3)C2)CC1 -26%
COc1nc(N)nc2c1ncn2[C@@H]1O[C@H](CO)[C@@H](O)[C@@H]1O 28.1%
COC(=O)N1CCC2(CC1)CCN(c1ncccn1)CC2 13.7%
CN(C)c1ccc(-c2cncnc2-n2ccnc2)cc1 2.96%
Cc1cc(C(=O)Nc2ccccc2-c2nc(CNC(=O)C3(C)CCCCC3)c(C)o2)c(C)o1 14.6%
O=C(O)[C@H]1CN[C@H](C(=O)O)C1 -3.92%
CN(C)c1ccc(/C=C/c2cc3ccccc3c[n+]2C)cc1 -2.82%
CCC1C(=O)NCCN1Cc1ccc2c(c1)CN(Cc1ccc(OC)cc1OC)CCO2 (centres undefined) -10.5%
O=C(CCCN1CCC(O)(c2cccc(C(F)(F)F)c2)CC1)c1ccc(F)cc1
CN(C)c1ccc(/C=C/c2cc3ccccc3cn2)cc1 6.84%
CN(C)CCCn1cc(C2=C(c3c[nH]c4ccccc34)C(=O)NC2=O)c2ccccc21 -12.1%
COc1ccccc1N1CCN(CCCNc2cc(=O)n(C)c(=O)n2C)CC1
COc1cc(-c2c(-c3ccc4c(c3)OCO4)noc2-c2ccsc2)cc(OC)c1OC 5.12%
CCCCCCCCCCOCCC(=O)O 18.4% [at 15.3 µM]
COc1ccc(CNc2cc(-c3ccccc3OC)ncn2)c(OC)c1 -2.68%
CC1(C)OC2CC3C4CC(F)C5=CC(=O)C=C[C@@]5(C)[C@@]4(F)C(O)C[C@@]3(C)[C@]2(C(=O)CO)O1 (some centres undefined) 14.4%
O=C1CC[C@@H](C(=O)NCC2Cc3cc(Cl)cc(-c4ccc5[nH]ccc5c4)c3O2)N1 (some centres undefined) 8.34%
COc1ccccc1CNc1ccnc(-c2ccc(C(=O)N(C)C)cc2)n1 4.2%
COc1cc(-c2noc(C)c2/C=C/c2ccc(OC(C)=O)cc2)cc(OC)c1OC -3.53%
Nc1[nH]c(=S)[nH]c(=O)c1N 20.2%
CC(CCc1ccc2c(c1)OCO2)NN (centres undefined) 23.3%
COc1ccc(C2NC(=S)N3C(c4ccc(OC)c(OC)c4)NC(=S)N23)cc1OC (centres undefined) 35%
c1csc(CNc2ncnc3ccc(-c4ccoc4)cc23)c1 11%
CC(O)(COc1ccccc1)c1ccc2c(c1)CN(Cc1ccccn1)CCO2 (centres undefined) 1.5%
O=c1c(-c2ccccc2)nc2cnc(Oc3ccccc3)nc2n1Cc1cccs1 19.7%
COC(=O)CC1C(C)(C)C(O)C2CC3=C4CC(O)OC(c5ccoc5)[C@]4(C)CCC3[C@@]1(C)C2=O (some centres undefined) -11.8%
Cc1ccc2nccnc2c1 24%
COc1ccccc1N1CCN(CCn2c(=O)[nH]c3c([nH]c4ccccc43)c2=O)CC1
c1ccc(-n2cnnn2)cc1 24%
Cn1c(=O)c2c(ncn2CCO)n(C)c1=O
Cc1cccc2cc(CN(CC3CCCO3)C(=O)c3ccccc3F)c(N(C)C)nc12 (centres undefined) 6.47%
COc1cc(=O)n2c(c1C(=O)N(C)Cc1nccs1)CCN(Cc1c(F)ccc(F)c1F)CC2 8.22%
O=C(O[C@H]1[C@H](Cc2ccccc2)NS(=O)(=O)[C@H]2C[C@@H]3C=C[C@]12O3)c1ccc([N+](=O)[O-])cc1 4.62%
CO/N=C(\C(=O)N[C@@H]1C(=O)N2C(C(=O)O)=C(CSc3nc(=O)c(O)nn3C)CSC12)c1csc(N)n1 (some centres undefined) 6.28% [at 75.8 µM]
C(=C\c1ccnc2ccccc12)/c1ccc2ccccc2n1 0.616%
Cn1c(-c2ccncc2)nc2cc(C(=O)N3CCCC3c3nccs3)cc(NC(=O)C3CCC3)c21 (centres undefined) 2.03%
COC(C)(C)CCCC(C)C/C=C/C(C)=C/C(=O)O (centres undefined) 40.7%
COc1cccc(CCNc2ncnc3sc(C(=O)N4CCOCC4)c(C)c23)c1 1.02%
CC(C)NC(=O)N1CC2(CCN(C(=O)c3cc(C(F)(F)F)cc(C(F)(F)F)c3)CC2)C1 9.88%
CCCCCCCCCCCCCCSCC(=O)O -12.2% [at 75.8 µM]
COc1ncc2nc(-c3cccs3)c(=O)n(C)c2n1 6.94%
CCCn1cnc2c1c(=O)n(CCCCC(C)=O)c(=O)n2C
O=C(O)CN(CCN(CC(=O)O)CC(=O)O)CCN(CC(=O)O)CC(=O)O
CC(C)(CO)Cc1cc(C(C)(C)C)c(O)c(C(C)(C)C)c1 3.54% [at 75.8 µM]
O=C1CCC[C@@H]2Cc3nc4cc5c(cc4cc3[C@@H]3CCN1[C@H]23)OCO5 4.52%
C#CCN(C)CCCOc1ccc(Cl)cc1Cl
CCc1cc2c(c(CC)n1)CCC(=O)N2Cc1ccc(-c2ccccc2-c2nn[nH]n2)cc1 3.87%
COc1ccccc1-c1cc(NCc2cccc(C)c2)ncn1 -9.2%
COC(=O)C1=C(C(=O)OC)[C@]2([C@@H]3C/C=C\CN[C@@H](Cc4ccccc4)C(=O)N3Cc3ccccc3)C=C[C@H]1O2 -23.7%
CCCCCCCCCCCCCCCCCCCCCC(=O)Nc1ccn([C@@H]2O[C@H](CO)[C@@H](O)[C@@H]2O)c(=O)n1 19.5%
CC(C)NCC(O)c1cc(O)cc(O)c1 (centres undefined)
COc1ccc(NC(=O)N2CCC3(CC2)CCN(C(=O)c2cccn2C)CC3)cc1 22.1%
O=C(NCC1(N2CCOCC2)CCCC1)c1cnn(-c2nccc(-c3ccco3)n2)c1C1CC1 19.5%
CC(=O)/C(C)=N/O -6.88% [at 75.8 µM]
O=C1CC[C@@H](C(=O)N[C@H]2C[C@@H]2c2ccccc2)N1 1.53%
N#C[C@H]1C[C@H]2C[C@@H]2N1C(=O)[C@@H](N)C12CC3CC(CC(O)(C3)C1)C2 22.1%
O=C1OC(OC(=O)c2cccnc2Nc2cccc(C(F)(F)F)c2)c2ccccc21 (centres undefined) 13.1%
O=C1[C@H](Cc2ccccc2)NCCCC[C@@H](c2ccco2)N1Cc1ccccc1 -9.86%
COC(=O)C1=C(C)NC(C)=C(C(=O)OC(C)C)C1c1cccc2nonc12 (centres undefined)
CC1(C)CC[C@]2(C(=O)O)CC[C@]3(C)C(=CCC4[C@@]5(C)CC[C@H](O)C(C)(C)[C@@H]5CC[C@]43C)C2C1 (some centres undefined) 19.7%
COCCn1c(=O)c(C)nc2cnc(N(C)C)nc21 7.17%
CO[C@H]1[C@H](NC(=O)c2ccsc2)c2ccccc2C12CCN(Cc1cccn1-c1ccccn1)CC2 9.35%
COc1cc(OC)c(C(=O)CCCCN2CCC3(CC2)NC(=O)NC3=O)cc1NS(=O)(=O)c1ccc(C(F)(F)F)cc1
CC1(C)SC2C(NC(=O)Cc3ccccc3)C(=O)N2C1C(=O)O (centres undefined) -9.06%
c1ccc2nc3ccccc3cc2c1 10.5%
O=C1CCC[C@@H]2C[C@@]3(C[C@@H]4CCN1[C@H]24)Nc1cc(Cl)ccc1NC3=NC1CCCCC1 -11.3%
Cc1cc2ccccc2cn1 17.8%
CC[C@@]12CCCN3CCc4c(n(c5ccccc45)[C@](O)(C(=O)OC)C1)[C@H]32 -6.08%
C/C=C/c1ccc2oc(-c3ccc(O)cc3)c(C)c2c1 -29.4%
O=C1CC[C@H](C(=O)N2CCCCC2)N1 40%
OC(c1ccc2c(c1)CN(Cc1cccn1-c1ncccn1)CCO2)C1CCCCC1 (centres undefined) 7.08%
O=C(O)/C=C/c1cnc[nH]1 7.53% [at 75.8 µM]
N[C@@H](CSCCCO)C(=O)O 8.65%
COc1ccc(CN2CCCC(n3cc(C(=O)NC4CCCC4)nn3)C2)c(O)c1 (centres undefined) 8.82%
CC(C)CN1CCC(=O)N(CCOc2ccccc2)CC1 5.12%
CN1CCN(c2ncc3nc(-c4cccc(C#N)c4)c(=O)n(Cc4ccc(F)cc4)c3n2)CC1 12.9%
Cc1ccc(CN2CCc3nnc(C(NC(=O)c4ccoc4)C(C)C)n3CC2)cc1C (centres undefined) -18.3%
N[C@@H](CSSC[C@H](N)C(=O)O)C(=O)O 0.0578%
CN(C)c1ccc(C(=O)N2CCCC(Cn3cc(C(=O)N4CCCC4)nn3)C2)cc1 (centres undefined) -23.2%
CC1COc2c(N3CCN(C)CC3)c(F)cc3c(=O)c(C(=O)O)cn1c23 (centres undefined)
CS(=O)(=O)NC(=O)CCC/C=C\C[C@H]1C(=O)C[C@@H](O)[C@@H]1/C=C/[C@H](O)COc1ccccc1 25.9%
